According to PubChem BioAssay AID686979 (National Center for Advancing Translational Sciences (NCATS), 2013):
Where “and” joins values, the source holds several entries; their conditions need not be identical. Equal values may be shown once. About 50,000 (12%) of roughly 420,000 compounds were called active. Inconclusive means that the source gave no clear call. Such entries were picked first, then a sample of the others. Calls come from the whole dose curve; as a rule, active = well fitted inhibition curve with a large enough effect; inconclusive = small, poorly fitted or top-dose-only effect; inactive = flat fitted curve, though single readings scatter. No potency is given beside an inconclusive call; the fits are too rough.

test: qHTS for Inhibitors of human tyrosyl-DNA phosphodiesterase 1 (TDP1): qHTS in cells in presence of CPT; settings: chicken DT40 Tdp1-/-;hTDP1 cells + 20 nM CPT, ATP luminescence, 48 h; activity change, negative = growth inhibition: at 46.2 µM (top of the series) unless noted; note: nearly all actives have a fitted effect of over 55% in size
How it was run: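 Chicken DT40 Tdp1-/- cells stably complemented with human TDP1 were seeded at 400 cells/well in medium containing 20 nM camptothecin, exposed to pin-transferred compounds, and grown at 37 °C for at least 48 hr. Viability was read as ATP luminescence.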
% is set by controls: 0 for no effect and ±100 for the full control effect; potency is the fitted concentration of half-maximal effect; tags give direction and shape of the fitted curve.

SMILES	Potency	activity change, negative = growth inhibition
O=C(Cc1ccc(NC(=O)N2CCSc3ncccc32)cc1)NCc1cccc(Cl)c1	inconclusive [inhibitor, single point]	–
Cc1nn(CC(=O)OCC(=O)Nc2ccccc2[N+](=O)[O-])c(C)c1[N+](=O)[O-]	inconclusive [inhibitor, partial curve]	–
CC(=O)N1c2ccc(S(=O)(=O)N3CCCC(C(=O)NCc4ccc(Cl)cc4)C3)cc2CC1C (stereo not drawn)	inconclusive [inhibitor, single point]	–
CN1CCN(c2ccc(Cl)cc2NC(=O)CN2C(=O)NC(C)(c3ccccc3)C2=O)CC1 (stereo not drawn)	inconclusive [inhibitor, single point]	–
O=C(c1ccccc1F)N1C(=O)c2cccc3cccc1c23	inconclusive [inhibitor, single point]	–
O=C(NCCN1C(=O)S/C(=C\c2cccnc2)C1=O)c1ccc(S(=O)(=O)N2CCCC2)cc1	inconclusive [inhibitor, single point]	–
Nc1ccc(-c2cnc(N)c(C(=O)c3cccnc3)n2)cn1	active: 1.84 µM	–
COc1ccccc1Nc1ccc(NC(=O)c2cccc([N+](=O)[O-])c2C)cc1	inconclusive [inhibitor, single point]	–
Cc1cnc(C(=O)Oc2c(C)ccc(C)c2C)cn1	–	inactive: -7.21%
NC(CCc1ccccc1)c1csc(Nc2ccc(C(=O)NCCCO)cn2)n1 (stereo not drawn)	–	inactive: -29.5%
COc1cccc(OCc2nnc(SCC(=O)NCc3ccco3)n2CCc2ccccc2)c1	active: 16.4 µM	–
Cc1ccc(NC(=O)C2CCCN2S(=O)(=O)c2cccc3cccnc23)c(C)c1 (stereo not drawn)	active: 23.1 µM and active: 16.4 µM	–
CC(=O)Nc1ccc(SCC(=O)c2cc(C)n(-c3ccccc3)c2C)cc1	–	inactive: -10.6%
CCOc1ccccc1CNC(=O)c1oc2c(c1C)-c1nn(Cc3cccc(Cl)c3)cc1CC2	inconclusive [inhibitor, single point]	–
COc1ccc(-n2cc(-c3ccccc3)c3c(N4CC(C)OC(C)C4)ncnc32)cc1 (stereo not drawn)	inconclusive [inhibitor, partial curve, poor fit]	–
CN(C)CCNC(=O)c1ccccc1	–	inactive: -12.8%
Cc1cccc(C(=O)NCc2nc3ccccc3n2Cc2ccccc2Cl)c1	inconclusive [inhibitor, single point]	–
COc1ccc(C(=O)N(Cc2ccccc2)c2cccc(C)c2)c(OC)c1OC	inconclusive [inhibitor, single point]	–
CC1(C(=O)NS(=O)(=O)c2cccc(Cl)c2)CCN1C(=O)Cc1ccccc1 (stereo not drawn)	–	inactive: -7.89%
Cc1ccc2c(=O)c(C(=O)c3ccc(Cl)cc3)cn(CC(=O)Nc3ccc4c(c3)OCCO4)c2n1	inconclusive [inhibitor, single point]	–
O=C(NCCN1CCOCC1)C1CC(=O)N(c2ccc(F)c(Cl)c2)C1 (stereo not drawn)	–	inactive: -12.1%
COc1cccc(NC(=O)Nc2cccn(Cc3ccccc3)c2=O)c1	inconclusive [inhibitor, single point]	–

SMILES	Potency	activity change, negative = growth inhibition
CCOc1ccc(Cn2c(CNS(=O)(=O)c3ccc(C(C)(C)C)cc3)nc3cccnc32)cc1	inconclusive [inhibitor, single point]	–
COc1ccc(NC(=O)COc2ccc(-n3cnnn3)cc2)cc1OC	inconclusive [inhibitor, single point]	–
CC(C)OC(=O)c1cc(NC(=O)c2nn(C)cc2Br)cc(C(=O)OC(C)C)c1	inconclusive [inhibitor, single point]	–
Cc1c(CCCN)c2ccccc2n1Cc1ccccc1	inconclusive [inhibitor, single point]	–
CCCOC1(NC(=O)c2ccccc2)C(C)=CC(=O)C=C1C	active: 23.1 µM	–
COc1ccc(Cl)cc1C(=O)NCCS(=O)(=O)N1CCN(c2ccccc2OC)CC1	inconclusive [inhibitor, single point]	–
Cn1c2ccccc2c(=O)c2cc(C#CC3(O)CCCCC3)ccc21	active: 16.4 µM	–
CC(C)(C)c1ccc(NC(=O)N2CCCN(c3ccc([N+](=O)[O-])cn3)CC2)cc1	inconclusive [inhibitor, single point]	–
CC(=O)N(C)c1nnc(-c2ccccn2)s1	–	inactive: -6.31%
CCOc1ccc(NC(=O)CN(C)Cc2ccc3c(c2)OCO3)cc1S(=O)(=O)N1CCCC1	inconclusive [inhibitor, single point]	–
COc1ccc2c(c1)c(=O)oc1cc(OCC(=O)N3CCc4ccccc4C3)ccc12	inconclusive [inhibitor, partial curve, poor fit]	–
COC(=O)N/N=C/c1cn(CCCOc2ccccc2)c2ccccc12	active: 25.9 µM	–
COc1cc(C(=O)COC(=O)c2cc([N+](=O)[O-])ccc2N2CCOCC2)ccc1OC(F)F	inconclusive [inhibitor, single point]	–
Nc1nc(N)c2cc(Sc3cccc(C(F)(F)F)c3)ccc2n1	active: 9.2 µM	–
S=C(Nc1ccc(-c2nc3ccccc3[nH]2)cc1)Nc1cccnc1	–	inactive: -23%
CCOc1ccc(CNC(=O)C2=Cc3cccc(OC)c3OC2)cc1	inconclusive [inhibitor, single point]	–
CCCC(C)(C)C(=O)N1CCC1(C)C(=O)Nc1ccc2c(c1)OCCO2 (stereo not drawn)	inconclusive [inhibitor, single point]	–
O=C(O)c1ccc(S(=O)(=O)N2CCc3ccccc3C2)cc1	–	inactive: -0.179%
O=C(CN1C(=O)C2(SCC(=O)N2c2ccc(F)c(F)c2)c2ccccc21)Nc1cccc(Cl)c1 (stereo not drawn)	inconclusive [inhibitor, single point]	–
Cc1ccccc1OCC(=O)Nc1ccc2nc(SCC(=O)N3CCOCC3)sc2c1	inconclusive [inhibitor, partial curve]	–
Cc1ccc(S(=O)(=O)N2CCCC2CNC(=O)C(=O)NCc2ccc3c(c2)OCO3)cc1 (stereo not drawn)	inconclusive [inhibitor, single point]	–
